Data reported in paper PMC5661268.
These are yes or no findings as the source states them, for the method shown. In cells and extracts the contact can be indirect. Some binding calls cover weakened binding; strength is not graded here.

Protein sequences, listed by entry. Tags and fused reporters are not part of them. Residues count along the entry.
eGFP-DNA-PKcs-N (a.a. 1-426) (P78527, residues 1-426): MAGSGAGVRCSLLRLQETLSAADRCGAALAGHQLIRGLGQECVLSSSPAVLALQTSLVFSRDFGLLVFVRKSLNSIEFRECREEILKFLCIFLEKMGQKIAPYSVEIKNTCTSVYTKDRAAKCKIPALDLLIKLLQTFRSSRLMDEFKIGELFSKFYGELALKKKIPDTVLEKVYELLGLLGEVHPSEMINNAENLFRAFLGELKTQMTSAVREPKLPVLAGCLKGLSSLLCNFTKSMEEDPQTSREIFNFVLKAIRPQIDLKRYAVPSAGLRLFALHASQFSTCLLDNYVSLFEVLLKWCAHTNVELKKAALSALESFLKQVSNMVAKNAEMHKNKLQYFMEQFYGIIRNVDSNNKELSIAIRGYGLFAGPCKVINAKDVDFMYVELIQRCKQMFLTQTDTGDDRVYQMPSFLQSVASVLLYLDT
eGFP-DNA-PKcs-II (a.a. 427-1400) (P78527, residues 427-1400): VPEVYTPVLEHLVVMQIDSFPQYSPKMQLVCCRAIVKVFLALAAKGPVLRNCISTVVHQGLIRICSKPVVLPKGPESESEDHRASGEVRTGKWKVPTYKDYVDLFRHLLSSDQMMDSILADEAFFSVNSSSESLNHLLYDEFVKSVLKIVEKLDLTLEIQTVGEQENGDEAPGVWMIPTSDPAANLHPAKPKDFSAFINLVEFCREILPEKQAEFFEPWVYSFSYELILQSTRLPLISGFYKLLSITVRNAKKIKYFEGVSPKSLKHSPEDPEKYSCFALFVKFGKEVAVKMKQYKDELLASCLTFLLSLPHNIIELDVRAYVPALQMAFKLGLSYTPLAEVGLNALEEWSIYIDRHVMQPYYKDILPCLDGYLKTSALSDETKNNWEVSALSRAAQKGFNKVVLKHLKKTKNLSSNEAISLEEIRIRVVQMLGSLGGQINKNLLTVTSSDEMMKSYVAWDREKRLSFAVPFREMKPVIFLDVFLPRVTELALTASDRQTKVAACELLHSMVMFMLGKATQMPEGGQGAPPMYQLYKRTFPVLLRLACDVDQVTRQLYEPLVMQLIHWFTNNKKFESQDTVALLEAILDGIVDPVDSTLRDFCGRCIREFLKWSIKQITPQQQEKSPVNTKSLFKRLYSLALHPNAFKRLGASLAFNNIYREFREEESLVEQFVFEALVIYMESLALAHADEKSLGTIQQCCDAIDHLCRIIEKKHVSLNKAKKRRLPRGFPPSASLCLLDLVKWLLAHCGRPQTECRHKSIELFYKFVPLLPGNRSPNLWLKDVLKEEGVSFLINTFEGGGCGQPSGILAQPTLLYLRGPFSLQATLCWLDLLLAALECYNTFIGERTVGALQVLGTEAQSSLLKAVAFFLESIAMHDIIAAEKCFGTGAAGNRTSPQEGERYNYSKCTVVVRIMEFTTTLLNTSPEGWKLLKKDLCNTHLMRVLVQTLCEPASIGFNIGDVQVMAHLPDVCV
eGFP-DNA-PKcs-IV (a.a. 2401-3850) (P78527, residues 2401-3850): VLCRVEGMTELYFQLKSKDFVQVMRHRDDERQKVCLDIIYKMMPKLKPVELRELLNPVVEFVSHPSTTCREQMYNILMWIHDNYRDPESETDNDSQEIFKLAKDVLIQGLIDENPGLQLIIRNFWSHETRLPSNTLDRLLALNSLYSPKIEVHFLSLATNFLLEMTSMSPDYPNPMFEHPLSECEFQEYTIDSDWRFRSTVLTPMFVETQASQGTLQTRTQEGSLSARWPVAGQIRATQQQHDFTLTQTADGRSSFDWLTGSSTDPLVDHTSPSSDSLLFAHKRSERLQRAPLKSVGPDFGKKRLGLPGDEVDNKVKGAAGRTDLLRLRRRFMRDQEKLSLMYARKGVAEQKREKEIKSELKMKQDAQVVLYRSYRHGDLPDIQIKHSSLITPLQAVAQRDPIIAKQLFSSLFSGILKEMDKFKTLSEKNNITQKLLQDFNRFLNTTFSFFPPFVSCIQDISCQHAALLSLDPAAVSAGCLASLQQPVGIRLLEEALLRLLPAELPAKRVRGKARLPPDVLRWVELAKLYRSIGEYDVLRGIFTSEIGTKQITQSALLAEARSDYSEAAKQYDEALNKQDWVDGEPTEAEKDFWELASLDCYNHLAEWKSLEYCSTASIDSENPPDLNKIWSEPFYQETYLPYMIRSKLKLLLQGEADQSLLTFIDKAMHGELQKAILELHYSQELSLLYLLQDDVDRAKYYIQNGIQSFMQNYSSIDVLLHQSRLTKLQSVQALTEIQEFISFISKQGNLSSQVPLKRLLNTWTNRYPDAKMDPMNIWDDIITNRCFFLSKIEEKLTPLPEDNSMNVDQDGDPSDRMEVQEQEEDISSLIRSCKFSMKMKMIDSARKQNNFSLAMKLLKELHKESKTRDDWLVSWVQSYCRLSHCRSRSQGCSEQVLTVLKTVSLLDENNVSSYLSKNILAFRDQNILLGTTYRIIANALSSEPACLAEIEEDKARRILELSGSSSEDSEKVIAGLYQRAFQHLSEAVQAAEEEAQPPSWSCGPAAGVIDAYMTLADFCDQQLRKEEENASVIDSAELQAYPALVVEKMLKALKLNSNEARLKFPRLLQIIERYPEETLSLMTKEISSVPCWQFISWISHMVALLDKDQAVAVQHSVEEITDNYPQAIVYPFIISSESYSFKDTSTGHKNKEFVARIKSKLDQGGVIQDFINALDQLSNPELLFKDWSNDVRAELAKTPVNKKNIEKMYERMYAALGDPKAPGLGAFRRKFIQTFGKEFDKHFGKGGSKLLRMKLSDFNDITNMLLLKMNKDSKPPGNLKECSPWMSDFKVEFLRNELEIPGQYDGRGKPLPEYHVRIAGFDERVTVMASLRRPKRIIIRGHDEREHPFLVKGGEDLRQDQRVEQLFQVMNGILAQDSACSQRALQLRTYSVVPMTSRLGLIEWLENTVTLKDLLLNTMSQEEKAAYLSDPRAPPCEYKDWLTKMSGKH
eGFP-DNA-PKcs-C (a.a. 3700-4128) (P78527, residues 3700-4128): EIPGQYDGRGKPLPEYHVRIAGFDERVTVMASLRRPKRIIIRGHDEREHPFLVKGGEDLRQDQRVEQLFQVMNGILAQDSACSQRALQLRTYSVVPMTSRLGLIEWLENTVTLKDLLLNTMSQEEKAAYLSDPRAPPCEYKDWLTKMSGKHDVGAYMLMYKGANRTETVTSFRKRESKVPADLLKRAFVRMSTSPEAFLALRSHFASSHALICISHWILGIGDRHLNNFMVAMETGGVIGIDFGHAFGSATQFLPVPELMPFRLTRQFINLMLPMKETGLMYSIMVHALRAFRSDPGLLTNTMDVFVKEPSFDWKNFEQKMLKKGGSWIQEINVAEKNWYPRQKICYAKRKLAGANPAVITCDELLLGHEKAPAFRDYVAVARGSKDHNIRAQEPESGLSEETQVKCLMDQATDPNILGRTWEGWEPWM
UniProt P31749: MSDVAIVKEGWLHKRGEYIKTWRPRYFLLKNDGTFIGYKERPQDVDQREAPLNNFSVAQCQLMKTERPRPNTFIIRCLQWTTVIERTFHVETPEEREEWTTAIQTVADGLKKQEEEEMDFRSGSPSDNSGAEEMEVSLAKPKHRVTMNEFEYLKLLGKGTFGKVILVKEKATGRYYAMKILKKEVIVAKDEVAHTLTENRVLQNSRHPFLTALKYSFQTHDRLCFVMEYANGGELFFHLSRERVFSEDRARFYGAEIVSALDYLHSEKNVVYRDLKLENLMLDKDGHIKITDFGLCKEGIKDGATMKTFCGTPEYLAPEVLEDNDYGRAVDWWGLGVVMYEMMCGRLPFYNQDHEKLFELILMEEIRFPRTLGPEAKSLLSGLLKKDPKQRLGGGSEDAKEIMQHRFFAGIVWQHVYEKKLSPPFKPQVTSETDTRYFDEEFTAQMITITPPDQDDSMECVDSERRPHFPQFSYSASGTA
UniProt P31751: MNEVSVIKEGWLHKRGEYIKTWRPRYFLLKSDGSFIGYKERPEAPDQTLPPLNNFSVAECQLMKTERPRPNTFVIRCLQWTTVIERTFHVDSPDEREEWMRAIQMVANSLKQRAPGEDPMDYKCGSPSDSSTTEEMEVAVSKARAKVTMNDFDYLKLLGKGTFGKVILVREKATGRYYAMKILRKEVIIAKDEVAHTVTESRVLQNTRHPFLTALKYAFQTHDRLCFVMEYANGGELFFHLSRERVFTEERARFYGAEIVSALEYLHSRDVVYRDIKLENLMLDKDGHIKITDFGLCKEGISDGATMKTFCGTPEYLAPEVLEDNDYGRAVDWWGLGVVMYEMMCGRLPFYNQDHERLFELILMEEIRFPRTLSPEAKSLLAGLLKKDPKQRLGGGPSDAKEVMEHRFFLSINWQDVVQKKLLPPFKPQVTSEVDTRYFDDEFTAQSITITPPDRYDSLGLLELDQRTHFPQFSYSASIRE
UniProt Q9Y243: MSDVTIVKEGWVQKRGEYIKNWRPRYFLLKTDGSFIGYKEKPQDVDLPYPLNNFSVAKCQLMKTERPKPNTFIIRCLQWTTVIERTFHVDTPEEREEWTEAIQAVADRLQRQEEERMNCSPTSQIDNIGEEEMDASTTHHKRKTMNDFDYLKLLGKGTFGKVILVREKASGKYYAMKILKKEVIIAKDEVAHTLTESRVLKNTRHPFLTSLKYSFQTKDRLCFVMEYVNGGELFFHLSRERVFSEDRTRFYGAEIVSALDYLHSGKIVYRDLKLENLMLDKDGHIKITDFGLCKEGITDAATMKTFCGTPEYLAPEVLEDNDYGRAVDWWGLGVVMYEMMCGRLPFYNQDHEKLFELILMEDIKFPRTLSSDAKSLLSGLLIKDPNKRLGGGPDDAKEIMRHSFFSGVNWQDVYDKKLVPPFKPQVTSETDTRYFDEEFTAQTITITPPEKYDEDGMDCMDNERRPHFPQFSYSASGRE

Columns and labels:
[1] = target: eGFP-DNA-PKcs-N (a.a. 1-426) (UniProt P78527); assay: co-IP; A549 cells transfected with eGFP-DNA-PKcs-N only, mock irradiated or 4 Gy, lysed 5 and 10 min post-irradiation; GFP-Trap on the soluble fraction; blot for the endogenous Akt isoforms
[2] = target: eGFP-DNA-PKcs-N (a.a. 1-426) (UniProt P78527); assay: co-IP; parental MDA-MB-231 cells co-transfected with one of the Akt isoforms and eGFP-DNA-PKcs-N (Supplementary Figure S3)
[3] = target: eGFP-DNA-PKcs-C (a.a. 3700-4128) (UniProt P78527); assay: co-IP; A549 cells co-transfected with an mCherry-tagged Akt isoform and eGFP or an eGFP-tagged DNA-PKcs fragment; 48 h later irradiated with 4 Gy (mock irradiated too in Supplementary Figure S1; DMSO or MK2206 for 1 h before irradiation in Figure 3a), lysed 10 min later; eGFP precipitated from the soluble fraction with GFP-Trap; wash 10 mM Tris/Cl, 150 mM NaCl, 0.5 mM EDTA; blot with Akt isoform-specific antibodies
[4] = target: eGFP-DNA-PKcs-II (a.a. 427-1400) (UniProt P78527); assay: as above
[5] = target: eGFP-DNA-PKcs-IV (a.a. 2401-3850) (UniProt P78527); assay: as above
[6] = target: eGFP-DNA-PKcs-N (a.a. 1-426) (UniProt P78527); assay: as above

| Substance | binding [1] | binding [2] | binding [3] | binding [4] | binding [5] | binding [6] |
| --- | --- | --- | --- | --- | --- | --- |
| endogenous Akt1 (from UniProt P31749 1-480) | binds | – | – | – | – | – |
| endogenous Akt2 (from UniProt P31751 1-481) | no binding | – | – | – | – | – |
| endogenous Akt3 (from UniProt Q9Y243 1-479) | binds weakly | – | – | – | – | – |
| mCherry-tagged full-length Akt1 (from UniProt P31749 1-480) | – | binds | binds | binds weakly | binds weakly | binds |
| mCherry-tagged full-length Akt2 (from UniProt P31751 1-481) | – | no binding | no binding | no binding | no binding | no binding |
| mCherry-tagged full-length Akt3 (from UniProt Q9Y243 1-479) | – | binds | binds | binds | binds | binds |
